Source: the supplement of paper PMC9135407
Several values for one entry are separate records, joined by “and”; a condition that tells them apart may be missing. Identical values can stand only once. Counter-ions that a name gives are not always drawn. Hit rate of the full screen: of about 5,800 compounds, about 620 (11%) showed activity.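 How the source made its calls: active = score above a cut-off or among the top three wells of a plate; in these data no inactive exceeds 0.85.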 The list shows a part of the results, in another mix than the full data.

System: primary human hepatic stellate cells (donor 1)
Test: scaled lipid accumulation score (0 = DMSO-like, 1 = nortriptyline-like); higher = stronger HSC inactivation (lipid re-accumulation), active = hit call of the paper
Details: 48 h
[1] = library stock concentration: 3.33 mM
[2] = library stock concentration: 10 mM
[3] = library stock concentration: 1 mM
[4] = library stock concentration: 80 uM
[5] = library stock concentration: 400 uM
[6] = library stock concentration: 2 mM

CCCCOc1ccc(OCCCN2CCOCC2)cc1 [Pramoxine HCl]
scaled lipid accumulation score [1]: inactive: ≤ 0 | scaled lipid accumulation score [2]: inactive: 0.369

CCCCOc1ccc(OCCCN2CCOCC2)cc1 [Pramoxine hydrochloride]
scaled lipid accumulation score: inactive: 0.083 | scaled lipid accumulation score (library stock concentration: 6.1 mM): inactive: 0.261 | scaled lipid accumulation score [2]: inactive: 0.068

S=P(N1CC1)(N1CC1)N1CC1 [Thiotepa]
scaled lipid accumulation score [2]: inactive: ≤ -0.027 | scaled lipid accumulation score (library stock concentration: 10.6 mM): inactive: ≤ 0

COc1cc(N)c(Cl)cc1C(=O)NC1CCN(Cc2ccccc2)CC1 [Clebopride maleate]
scaled lipid accumulation score: inactive: 0.22 | scaled lipid accumulation score [2]: inactive: 0.021

O=C(Nc1cc(Cl)cc2c1[nH]c1cnccc12)c1cccnc1 [IKK Inhibitor X]
scaled lipid accumulation score [1]: inactive: ≤ 0

CCCCC/C=C\C/C=C\C/C=C\CCCC/C=C\CCC(=O)O [cis-4,10,13,16-Docosatetraenoic Acid]
scaled lipid accumulation score [3]: inactive: ≤ 0

CNC(=O)CN1CCC(Oc2cc3c(Nc4cccc(Cl)c4F)ncnc3cc2OC)CC1 [AZD8931 (Sapitinib)]
scaled lipid accumulation score [1]: inactive: 0.28 | scaled lipid accumulation score [2]: inactive: 0.713

CCCS(=O)(=O)Nc1ccc(F)c(C(=O)c2c[nH]c3ncc(Cl)cc23)c1F
scaled lipid accumulation score [4]: inactive: ≤ 0 | scaled lipid accumulation score [5]: inactive: ≤ 0 and inactive: 0.028 | scaled lipid accumulation score [6]: inactive: ≤ 0 and inactive: 0.042 | scaled lipid accumulation score [1]: inactive: ≤ 0 | scaled lipid accumulation score [2]: inactive: ≤ 0

CCCCC[C@H](O)/C=C/[C@H]1C=CC(=O)[C@H]1C/C=C\CCCC(=O)O [8-iso Prostaglandin A2]
scaled lipid accumulation score [3]: inactive: ≤ 0

Nc1nc(N)nc(-c2cc(Cl)ccc2Cl)n1 [Irsogladine maleate]
scaled lipid accumulation score (library stock concentration: 7.8 mM): inactive: ≤ 0 | scaled lipid accumulation score [2]: inactive: 0.011

Nc1nc(N)nc(-c2cc(Cl)ccc2Cl)n1 [Irsogladine]
scaled lipid accumulation score [1]: inactive: 0.012 | scaled lipid accumulation score [2]: inactive: ≤ 0

Nc1nc(N)nc(-c2cc(Cl)ccc2Cl)n1
scaled lipid accumulation score [2]: inactive: ≤ 0

CCN1CCCC1CNC(=O)c1cc(S(=O)(=O)CC)c(N)cc1OC (centres undefined) [Amisulpride]
scaled lipid accumulation score [1]: inactive: ≤ 0 | scaled lipid accumulation score [2]: inactive: ≤ 0 and inactive: 0.028

CCN1CCN(Cc2ccc(Nc3ncc4c(n3)N(C)c3ccccc3C(=O)N4C)cc2C(F)(F)F)CC1
scaled lipid accumulation score [4]: inactive: 0.012 | scaled lipid accumulation score [5]: inactive: 0.132 | scaled lipid accumulation score [6]: inactive: 0.243 | scaled lipid accumulation score [2]: inactive: 0.479

O=C(Nc1cccc(Cl)c1)Nc1ncc(CCNc2ncnc3ccsc23)s1
scaled lipid accumulation score [5]: inactive: ≤ -0.005 | scaled lipid accumulation score [6]: inactive: ≤ -0.005 | scaled lipid accumulation score [2]: inactive: ≤ -0.005

O=C(Nc1cccc(Cl)c1)Nc1ncc(CCNc2ncnc3ccsc23)s1 [SNS-314 Mesylate]
scaled lipid accumulation score [1]: inactive: 0.041 | scaled lipid accumulation score [2]: inactive: 0.269

Nc1ncnc2c1c(-c1cccc(OCc3ccccc3)c1)cn2C1CC(CN2CCCC2)C1 (centres undefined)
scaled lipid accumulation score [2]: inactive: 0.36

CCCCC[C@H](O)/C=C/[C@@H]1[C@H](CCCCCCC(=O)O)[C@H](O)C[C@H]1O [8-iso Prostaglandin F1.beta.]
scaled lipid accumulation score [3]: inactive: ≤ 0

CCc1c(C(=O)NCCc2ccc(N3CCCCC3)cc2)[nH]c2ccc(Cl)cc12
scaled lipid accumulation score [1]: inactive: ≤ 0 | scaled lipid accumulation score [2]: inactive: 0.385

COc1cc2ncnc(Nc3cc(Br)c(O)c(Br)c3)c2cc1OC
scaled lipid accumulation score [4]: inactive: ≤ 0 | scaled lipid accumulation score [5]: inactive: ≤ 0 | scaled lipid accumulation score [6]: inactive: ≤ 0 | scaled lipid accumulation score [2]: inactive: 0.04

CCn1c(=O)n(C2=C(CO)CN(CC3CCCCCCC3)CC2)c2ccccc21
scaled lipid accumulation score [2]: inactive: 0.105

CCCCCCCC/C=C\CCCCCCCC(=O)O [Oleic Acid]
scaled lipid accumulation score [3]: inactive: ≤ 0 | scaled lipid accumulation score [2]: inactive: ≤ -0.015

Nc1nc2c(nc(O)n2[C@@H]2O[C@H](CO)[C@@H](O)[C@H]2O)c(=O)[nH]1 [8-hydroxy Guanosine]
scaled lipid accumulation score [3]: inactive: ≤ 0

CCCCC[C@H](O)CC(=O)CCc1ccc(O)c(OC)c1 [6-Gingerol]
scaled lipid accumulation score (library stock concentration: 17 mM): inactive: ≤ -0.014

CO[C@H]1C[C@@H]2CC[C@@H](C)[C@@](O)(O2)C(=O)C(=O)N2CCCC[C@H]2C(=O)O[C@H]([C@H](C)C[C@@H]2CC[C@@H](OP(C)(C)=O)[C@H](OC)C2)CC(=O)[C@H](C)/C=C(\C)[C@@H](O)[C@@H](OC)C(=O)[C@H](C)C[C@H](C)/C=C/C=C/C=C/1C [Ridaforolimus (Deforolimus, MK-8669)]
scaled lipid accumulation score [1]: inactive: ≤ 0 | scaled lipid accumulation score [2]: inactive: ≤ 0

Cc1c(OCC(F)(F)F)ccnc1C[S+]([O-])c1nc2ccccc2[nH]1 (centres undefined) [Lansoprazole]
scaled lipid accumulation score: inactive: ≤ 0 | scaled lipid accumulation score [1]: inactive: ≤ 0 | scaled lipid accumulation score (library stock concentration: 5.4 mM): inactive: ≤ 0

CNCCc1c[nH]c(CCC(c2ccccc2)c2ccccc2)n1.O=C(O)C(=O)O.O=C(O)C(=O)O [N-Methylhistaprodifen dioxalate salt]
scaled lipid accumulation score [2]: active: 1.02

[N-]=[N+]=Nc1ccc(C(=O)CSC[C@H](NC(=O)CC[C@H](N)C(=O)O)C(=O)NCC(=O)O)cc1 [S-(p-Azidophenacyl)glutathione]
scaled lipid accumulation score [2]: inactive: ≤ 0

Cn1c(=O)c2c(ncn2C)n(C)c1=O [Caffeine]
scaled lipid accumulation score [2]: inactive: ≤ 0

COc1cc2c(Nc3ccc(Br)cc3F)ncnc2cc1OCC1CCN(C)CC1 [Vandetanib (ZD6474)]
scaled lipid accumulation score [1]: active: 1.18

O=C1CCc2c(ccc3ccccc23)O1 [Splitomicin]
scaled lipid accumulation score [2]: inactive: ≤ -0.006

CC[C@@H]1C(=O)N(C)c2cnc(Nc3ccc(C(=O)NC4CCN(C)CC4)cc3OC)nc2N1C1CCCC1
scaled lipid accumulation score [4]: inactive: 0.007 | scaled lipid accumulation score [5]: inactive: 0.527 | scaled lipid accumulation score [6]: inactive: 0.722 and inactive: 0.628 | scaled lipid accumulation score [1]: inactive: 0.569 | scaled lipid accumulation score [2]: inactive: 0.749 and inactive: 0.538 and inactive: 0.259

O=S(=O)(c1cccc2c(Cl)cccc12)N1CCCNCC1
scaled lipid accumulation score (library stock concentration: 15.4 mM): active: 0.912

O=C1c2ccccc2C(Cc2ccncc2)(Cc2ccncc2)c2ccccc21 [XE 991 dihydrochloride]
scaled lipid accumulation score [2]: inactive: ≤ -0.001

O=C(NCCN1CCC(n2c(=O)[nH]c3cc(Cl)ccc32)CC1)c1ccc(F)cc1 [Halopemide]
scaled lipid accumulation score [3]: inactive: ≤ 0

COC(=O)Nc1nc2cc(C(=O)c3ccc(F)cc3)ccc2[nH]1
scaled lipid accumulation score [2]: inactive: 0.633

COC(=O)Nc1nc2cc(C(=O)c3ccc(F)cc3)ccc2[nH]1 [Flubendazole]
scaled lipid accumulation score (library stock concentration: 6.4 mM): inactive: 0.751

COc1cc2ncnc(Nc3cccc(O)c3)c2cc1OC [WHI-P180, Hydrochloride]
scaled lipid accumulation score [1]: inactive: ≤ 0
